In PubChem BioAssay AID1159614 (National Center for Advancing Translational Sciences (NCATS), 2016):
Screen size: about 45,000 compounds; about 65 (0.1%) were called active. Calls follow the shape of the dose curve; as a rule, active = well fitted activation curve with a large enough effect; inconclusive = small, poorly fitted or top-dose-only effect; inactive = no such curve, though single readings can be large or run the other way. This is one part of the list.

biological target: Galactocerebrosidase (Homo sapiens) (UniProt P54803); experiment: A Novel Cell-Based Assay to Identify Small Molecules for B -Galactocerebrosidase; settings: 145M-Twi-hGALC-G270D cells (Twitcher mouse brain line with human GALC G270D), HMU-beta-Gal fluorescence, 48 h; series mostly up to 57.5 µM; activation: at the top concentration; also: 0% is about no effect; nearly all actives have a fitted effect of over 65% in size
UniProt P54803, sequence (P54803 whole entry, looked up): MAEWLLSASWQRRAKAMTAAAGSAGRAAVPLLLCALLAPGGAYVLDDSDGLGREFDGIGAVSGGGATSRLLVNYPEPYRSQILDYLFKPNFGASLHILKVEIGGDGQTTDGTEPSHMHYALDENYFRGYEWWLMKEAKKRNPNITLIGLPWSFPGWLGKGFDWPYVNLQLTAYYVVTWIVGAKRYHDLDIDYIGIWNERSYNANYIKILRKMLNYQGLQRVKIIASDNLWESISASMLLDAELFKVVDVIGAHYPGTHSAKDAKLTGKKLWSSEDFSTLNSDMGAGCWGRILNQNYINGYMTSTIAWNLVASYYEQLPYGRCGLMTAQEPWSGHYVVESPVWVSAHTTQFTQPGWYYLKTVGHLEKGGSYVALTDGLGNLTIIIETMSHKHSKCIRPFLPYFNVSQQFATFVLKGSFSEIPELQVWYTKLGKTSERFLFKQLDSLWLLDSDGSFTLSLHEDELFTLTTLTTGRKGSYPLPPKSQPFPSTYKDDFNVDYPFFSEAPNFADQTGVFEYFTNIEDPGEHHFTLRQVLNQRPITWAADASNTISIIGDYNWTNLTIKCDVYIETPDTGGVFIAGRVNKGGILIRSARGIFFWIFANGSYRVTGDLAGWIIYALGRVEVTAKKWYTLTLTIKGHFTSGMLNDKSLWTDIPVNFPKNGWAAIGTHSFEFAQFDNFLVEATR
Procedure, shortened: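 Live 145M-Twi cells (Twitcher mouse brain-derived, GALC-null) stably expressing human GALC-G270D, with a wild-type GALC line, were compound-treated. Residual GALC activity was then read as fluorescence from 0.1 mM final HMU-β-gal at pH 5.2; higher signal means activation.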

activation, inactive:
Cc1ccc(Cl)cc1NC(=O)COC(=O)CC(C)(C)CC1=NS(=O)(=O)c2ccccc2N1 -5.21%, Cc1ccc(-n2nnc(-c3nc(-c4cccs4)no3)c2N)cc1C -24.2%, Cc1oc2ncnc(N3CCCCC3)c2c1C(=O)NCC1CCN(Cc2cccc(F)c2)CC1 -18.6%, CCN1CCN(CCCNC(=O)CS(=O)(=O)Cc2nc(-c3cccc(OC)c3)oc2C)CC1 -16.7%, CCOC(=O)c1[nH]c2ccccc2c1NC(=O)c1ccccc1F -11.6%, COc1ccc(-n2c(SCC(=O)NCc3ccccc3)nc3c([nH]c4ccccc43)c2=O)cc1 -9.08%, O=C(CCC1N=C2c3ccccc3N=C(SCC(=O)Nc3ccc(F)cc3)N2C1=O)NCc1ccco1 (stereo unspecified) -17.5%, COc1cc(Nc2nc(SCC(=O)c3ccc(Cl)c(Cl)c3)nc3ccccc23)cc(OC)c1 -8.75%, Nc1nn(-c2ccccc2)nc1C(=O)OCc1c(F)cccc1Cl 3.56%, Cc1ccc(N(Cc2cccs2)C(=O)c2ccco2)cc1 7.5%, CC(C)N(C(=O)Cn1cc(S(=O)(=O)Cc2ccc(Cl)cc2)c2ccccc21)C(C)C -15.4%, COc1ccc(NC(=O)CC2Nc3ccccc3NC2=O)cc1 (stereo unspecified) -6.24%, Cc1cc(C(=O)NCc2ccccc2)c2c(C)nn(-c3cccc(F)c3)c2n1 -2.97%, COc1ccc(Nc2nn(-c3ccc(OC(F)(F)F)cc3)nc2C(C)=O)cc1 -13.7%, Cc1ccc(CNC(=O)c2ccc(CS(=O)(=O)Cc3ccc(C)cc3)o2)cc1 3.23%, Cc1nn(-c2ccccc2)c2c1N(CC(=O)N1CCN(c3ccccc3F)CC1)C(=O)CS2 -3.95%, COc1ccccc1Nc1ncnc2scc(-c3ccc(F)cc3)c12 -24.2%, Cc1ccc(CNc2ccc3cc(S(=O)(=O)N4CCCCC4)ccc3n2)cc1 -45.3%, COc1ccc(OC)c(NC(=O)c2ccc3c(Cl)c4c(nc3c2)CCCC4)c1 -6.42%, COc1cc(OC)c(NC(=O)N2CCC(CN3CCCC3)CC2)cc1Cl -8.66%, CCOC(=O)c1ccc(Nc2nn3c(=O)c4ccccc4nc3s2)cc1 -23.9%, CCCCN(C)C(=O)Cn1cnc2sc(C)c(S(=O)(=O)N3CCC(C)CC3)c2c1=O -14.2%, CCCCN(CCCNC(=O)c1cc(Nc2ccccc2OC)nc2ccccc12)c1ccccc1 -7.22%, COc1ccc(C2(CNC(=O)C(=O)Nc3ccccc3C)CCCC2)cc1OC -5.47%, COc1ccc(CNC(=O)c2cccn2-c2nnc(N3CCCC3)s2)c(OC)c1 -8.71%, Cc1ccc(S(=O)(=O)c2nc(-c3ccc(F)cc3)oc2N2CCN(c3ccccc3)CC2)cc1 -18.9%, CCN(CC)c1ccc(C2Nc3ccccc3-c3cc(C)nn32)cc1 (stereo unspecified) -19.8%, Cc1ccc(NC(=O)C2CCCN(S(=O)(=O)c3c(C)noc3C)C2)cc1 (stereo unspecified) 6.17%, Cc1cccc(-n2c(=O)c3c4c(sc3n3c(C)nnc23)CCCC4)c1 -8.69%, COc1ccc(NC(=O)c2oc3ccccc3c2NC(=O)C2CCCCC2)c(OC)c1 -3.77%, Nc1c(C(=O)Nc2ccccc2)sc2nc3c(cc12)CN(Cc1ccccc1)CC3 1.05%, Clc1ccc(-n2c(Cc3ccccc3)nnc2SCc2nc(-c3cccs3)no2)cc1 -8.38%, Cc1cc(C)c(/C=C/c2onc(C)c2S(=O)(=O)N2CCC(C(=O)NCCc3ccccc3)CC2)c(C)c1 -11.1%, CCOc1cc(C#N)c(-n2nnc3c(sc4nc(C)cc(C)c43)c2=O)cc1OCC -21.6%, CCCCN(C)C(=O)c1ccc2c(c1)N(Cc1cccc(F)c1)C(=O)c1ccccc1S2 0.839%, NS(=O)(=O)c1ccc(C(=O)O)cc1 -7.83%, CCOC(=O)c1scc(-c2ccc(C)cc2)c1S(=O)(=O)Nc1cc(OC)ccc1OC -9.04%, CCc1cccc(C)c1NC(=O)C1CCCN1S(=O)(=O)c1cccc2nsnc12 (stereo unspecified) -18.8%, COC(=O)c1ccc(NC(=O)Cn2cnc3c2c(=O)n(C)c(=O)n3C)cc1 -20.1%, O=C(Cn1c(=O)c2cccn2c2ccccc21)NCc1ccccc1F -7.54%, Cc1cccc(N(CC(=O)NCCSCc2ccccc2)S(=O)(=O)c2ccccc2)c1C -11.8%, Cc1ccc(C(=O)c2cn(Cc3ccccc3)c3nc(C)ccc3c2=O)cc1 -8.75%, Cc1nc(N2CCCC2)c2c(C(=O)N3CCN(c4cc(Cl)ccc4C)CC3)c(C)oc2n1 -34.9%, CCn1c(=O)c(=O)n(CC)c2cc(S(=O)(=O)Nc3ccc(C)cc3)ccc21 -12.2%, CCCC(=O)N1CCN(c2nc3ccc(F)cc3s2)CC1 -20.4%, Cc1cccc(-c2nc(S(=O)(=O)c3ccc(F)cc3)c(N3CCN(c4ccccc4)CC3)o2)c1 -10.2%, CC(C)c1ccc(NC(=O)c2cc3c(s2)-c2ccccc2SC3)cc1 -8.24%, Cc1ccc(CCNC(=O)c2ccc3c(c2)N(Cc2cccc(C)c2)C(=O)c2ccccc2S3(=O)=O)cc1 -0.0483%, CCOC(=O)c1ccccc1NC(=O)Cn1cc(C(=O)c2cccc(OC)c2)c(=O)c2ccc(C)nc21 2.69%, CCOC(=O)c1c(C)[nH]c(CCC(=O)NCCCN2CCN(c3ccc(F)cc3)CC2)c1C -13.6%, CCCCCCCCCCCCCCCC[N+](C)(C)CCN(Cc1ccc(OC)cc1)c1ncccn1 -11.2%, CCc1ccc(N=C2NC(=O)CC(C(=O)Nc3ccc(OC)cc3)S2)cc1 (stereo unspecified) -20%, COc1cc2c(cc1OC)C(COc1ccccc1OC)N(C(=O)CC(C)C)CC2 (stereo unspecified) -13.7%, Cc1cc(=O)[nH]c2nnc(SCC(=O)NC(C)(C)C)n12 -15.1%, O=C(CN1C(=O)COc2ccc(S(=O)(=O)N3CCCCCC3)cc21)NCc1ccc(Cl)cc1 -14.1%, CC(=O)N1CCc2cc(CNS(=O)(=O)c3ccc(F)cc3)ccc21 -8.04%, CCc1c(C)sc2c1CCN(Cc1cccc(F)c1)C2c1ccccc1 (stereo unspecified) -5.64%, O=C(NCc1cccc(Cl)c1)c1cc2c(s1)-c1ccccc1OC2 -25.1%, CCc1ccc(-c2cn3c(n2)sc2cc(C(=O)NC4CCCCCC4)ccc23)cc1 -21.4%, COc1ccc(Cl)cc1Nc1sc(C(=O)c2ccccc2)c(N)c1C(=O)Nc1ccccc1 -11.8%, CC(=O)Nc1ccc(C(=O)CSc2nnc(-c3ccccc3)n2-c2ccccc2)cc1 -4.64%, Cc1ccc(NC2=C(c3ccc(C(F)(F)F)cc3)C(=O)c3ccccc32)cc1C -15%, Cc1ccc(S(=O)(=O)c2nc(-c3ccccc3F)oc2N2CCCCC2)cc1 -20.1%, Cc1ccc(-c2cc(C(=O)NCc3cnn(C)c3C)c3cc(Br)ccc3n2)cc1 -14.2%, COCCc1nn2c(=O)cc(COC(=O)c3ccc4c(c3)OCO4)nc2s1 -10.7%, COc1ccc(CCN2C(=O)c3oc4cc(C)cc(C)c4c(=O)c3C2c2ccc(F)cc2)cc1OC (stereo unspecified) 0.353%, COc1ccccc1N1CCN(C(=O)c2ccc(CS(=O)c3ccccc3C)o2)CC1 (stereo unspecified) -7.93%, O=C(NC1CC1)c1ccc(Cn2c(SCc3cccc(F)c3)nc3cccnc32)cc1 1.05%, O=C(Nc1ccc(Cl)cc1)C1CCN(c2nc3ccccc3nc2C(F)(F)F)CC1 -2.03%, O=C(NCC(c1cccnc1)N1CCc2ccccc2C1)c1ccc(F)c(F)c1 (stereo unspecified) -10.2%, O=C(O)P(=O)(O)O -9.37%, CCC(CC)C(=O)Nc1ccc(OCc2cc(=O)n3c4c(sc3n2)CCCC4)cc1 -11.2%, CCS(=O)(=O)N1CCc2cc(C(=O)NCc3ccc(OC)cc3)ccc21 -14.5%, Cn1cc(S(=O)(=O)c2cccc(Cl)c2)c(=O)c2cc(F)c(N3CCCCCC3)cc21 -15.9%, CCOc1ccc(NC(=O)c2ccc3c(SCC(=O)O)c4c(nc3c2)CCCC4)cc1 -26%, Cc1ccc(C)c(N2CCN(C(=O)C3CCN(c4nc(-c5ccc(C(C)C)cc5)no4)CC3)CC2)c1 -6.07%, Cc1ccc(C(=O)N2CCc3cc(CNS(=O)(=O)c4ccc(Cl)s4)ccc32)cc1 -6.87%, CCOc1ccc(C2CC(=O)n3nc(-c4ccc(C)cc4)nc3S2)cc1OC (stereo unspecified) -13.6%, Fc1ccc(-c2nc(Nc3ccc(F)c(Cl)c3)nc3c2COc2ccccc2-3)cc1 -11.3%, CC(C(=O)Nc1cccc(C#N)c1)n1nc(-c2ccccc2)c2c(c1=O)CCCC2 (stereo unspecified) -14.5%, CCOC(=O)C1CCCN(C(=O)c2ccc3c(c2)N(Cc2ccccc2)C(=O)c2ccccc2S3(=O)=O)C1 (stereo unspecified) -9.49%, CC1=C(C(=O)Nc2ccc(C)cc2C)C(c2ccccc2[N+](=O)[O-])n2ncc(C(=O)Nc3ccccc3)c2N1 (stereo unspecified) -2.94%, O=C(Nc1ccc(NC(=O)c2cc3ccccc3o2)cc1)c1ccccc1 -34%, Cn1cc(S(=O)(=O)c2ccc(Cl)cc2)c(=O)c2cc(F)c(N3CCCCCC3)cc21 -15.1%, O=C(CN1CCN(S(=O)(=O)c2cc(Cl)ccc2Cl)CC1)Nc1cccc(F)c1 -36.7%, CCOc1ccc(N2CC(c3nc4ccccc4n3Cc3cccc(Cl)c3)CC2=O)cc1 (stereo unspecified) -8.29%, Cc1nn(CCCC(=O)NCc2ccc(F)cc2)c(=O)c2c1sc1ccccc12 -6.89%, Cc1c2cnn(CC(=O)N3CCN(c4ccc(F)cc4)CC3)c(=O)c2c(C)n1Cc1ccc(F)cc1 -27.6%, Cc1cc(C)cc(C(=O)Nc2ccc(-c3nc4ncccc4o3)cc2)c1 -16.9%, O=C(NCc1ccc(Cl)cc1)c1cc(S(=O)(=O)N2CCCCC2)c[nH]1 -9.43%, CCOc1ccc2nc(NC(=O)c3cc(=O)c4ccc(C)cc4o3)sc2c1 -14.8%, CCN1CCSc2ccc(C(=O)NC(C)c3ccccc3)cc21 (stereo unspecified) -0.778%, Cc1ccc(CNC(=O)Cn2nc(C)n3cccc3c2=O)cc1 -15%, Cc1ccc(-n2ncc(C(=O)N3CCN(c4cccc(C)c4)C(C)C3)c2C2CCN(C(=O)OC(C)(C)C)CC2)cc1 (stereo unspecified) 10.7%, COc1ccccc1CNC(=O)CCn1c(=O)c2ccccc2n(CC(=O)Nc2cccc(Cl)c2)c1=O -8.25%, CCOC(=O)c1cc(-c2ccccc2)n(-c2cccc(C(=O)Nc3ccc(F)c(F)c3)c2)c1C -9.94%
